In PubChem BioAssay (NCI):
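Briefly, cells in 96-well plates were exposed to five compound concentrations for 48 h, and endpoints were estimated by linear interpolation. GI50: concentration for 50% inhibition of growth. TGI marks complete inhibition of growth.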

These compounds were tested on NCI-H322M lung (assay: NCI tumour cell line growth inhibition, 48 h).
In the case of `O=C(N/N=C/c1ccc(-c2cccc([N+](=O)[O-])c2)o1)c1[nH]c2ccc(Br)cc2c1-c1ccccc1`, the GI50 is reported as 8.37 µM and the TGI is reported as greater than 100 µM. For `Cc1cc(C(NC(=O)CCCCCNc2cccc3c2C(=O)N(C2CCC(=O)CC2=O)C3=O)c2cccc(N(C)C)c2)c(O)c2ncccc12` (stereo not drawn), the GI50 was 0.584 µM and the TGI was greater than 58.5 µM. Work on `O=C(c1ccc(Cl)cc1)C1[C@H](c2ccc(Br)cc2)[C@@H](c2ccccc2)NC12C(=O)Nc1ccccc12` (stereo partly drawn) yielded a GI50 of 7.9 µM and a TGI of 26.6 µM. With `COc1cc(NC(=O)c2cc(-c3ccc(F)cc3F)ccc2O)cc(OC)c1OC` the GI50 was 10.2 µM and the TGI was 28.4 µM.
